Experimental data reported in publication PMC9911399, “Two distinct binding modes provide the RNA-binding protein RbFox with extraordinary sequence specificity”.
Residue numbers refer to the chain shown, from its start. The list shows a part of the results.

T1: RBFOX1 RRM RbFoxmut (Fox-RRM*) (Homo sapiens, UniProt Q9NWB1 109-208, R118D;E147R;N151S;E152T)
T1 sequence: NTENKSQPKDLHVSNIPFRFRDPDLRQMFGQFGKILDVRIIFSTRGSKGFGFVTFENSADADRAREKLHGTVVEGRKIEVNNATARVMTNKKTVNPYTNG

B1: ACCGGGA (DNA:RNA)
RNA: GGGAGACCGGAAUUCAGAUUGUCCACCGGGAUUAAAUCCCGUCGUAGCCACCA
DNA 1: CAATCTGAATTCCGGTCTCCC
DNA 2: TGGTGGCTACGACGGGATT
B2: GCCUACG (DNA:RNA)
RNA: B1 RNA with A25G, G28U, G29A, G30C, A31G
DNA 1: CAATCTGAATTCCGGTCTCCC
DNA 2: TGGTGGCTACGACGGGATT
B3: UUUUGAC (DNA:RNA)
RNA: B1 RNA with A25U, C26U, C27U, G28U, G30A, A31C
DNA 1: CAATCTGAATTCCGGTCTCCC
DNA 2: TGGTGGCTACGACGGGATT
B4: CGCUGUU (DNA:RNA)
RNA: B1 RNA with A25C, C26G, G28U, G30U, A31U
DNA 1: CAATCTGAATTCCGGTCTCCC
DNA 2: TGGTGGCTACGACGGGATT
B5: GCAAAGC (DNA:RNA)
RNA: B1 RNA with A25G, C27A, G28A, G29A, A31C
DNA 1: CAATCTGAATTCCGGTCTCCC
DNA 2: TGGTGGCTACGACGGGATT
B6: AGGGAAU (DNA:RNA)
RNA: B1 RNA with C26G, C27G, G29A, G30A, A31U
DNA 1: CAATCTGAATTCCGGTCTCCC
DNA 2: TGGTGGCTACGACGGGATT
B7: GUCGCCG (DNA:RNA)
RNA: B1 RNA with A25G, C26U, G29C, G30C, A31G
DNA 1: CAATCTGAATTCCGGTCTCCC
DNA 2: TGGTGGCTACGACGGGATT
B8: CCUGGCA (DNA:RNA)
RNA: B1 RNA with A25C, C27U, G30C
DNA 1: CAATCTGAATTCCGGTCTCCC
DNA 2: TGGTGGCTACGACGGGATT
B9: CCUCUUC (DNA:RNA)
RNA: B1 RNA with A25C, C27U, G28C, G29U, G30U, A31C
DNA 1: CAATCTGAATTCCGGTCTCCC
DNA 2: TGGTGGCTACGACGGGATT
B10: CUCCGCC (DNA:RNA)
RNA: B1 RNA with A25C, C26U, G28C, G30C, A31C
DNA 1: CAATCTGAATTCCGGTCTCCC
DNA 2: TGGTGGCTACGACGGGATT
B11: CCCCCAA (DNA:RNA)
RNA: B1 RNA with A25C, G28C, G29C, G30A
DNA 1: CAATCTGAATTCCGGTCTCCC
DNA 2: TGGTGGCTACGACGGGATT
B12: CAGCGUG (DNA:RNA)
RNA: B1 RNA with A25C, C26A, C27G, G28C, G30U, A31G
DNA 1: CAATCTGAATTCCGGTCTCCC
DNA 2: TGGTGGCTACGACGGGATT
B13: CGCUUUA (DNA:RNA)
RNA: B1 RNA with A25C, C26G, G28U, G29U, G30U
DNA 1: CAATCTGAATTCCGGTCTCCC
DNA 2: TGGTGGCTACGACGGGATT
B14: CCUUUCC (DNA:RNA)
RNA: B1 RNA with A25C, C27U, G28U, G29U, G30C, A31C
DNA 1: CAATCTGAATTCCGGTCTCCC
DNA 2: TGGTGGCTACGACGGGATT
B15: CAGUCAU (DNA:RNA)
RNA: GGGAGACCGGAAUUCAGAUUGUCCCAGUCAUUUAAAUCCCGUCGUAGCCACCA
DNA 1: CAATCTGAATTCCGGTCTCCC
DNA 2: TGGTGGCTACGACGGGATT
B16: UAUUCAU (DNA:RNA)
RNA: B15 RNA with C25U, G27U
DNA 1: CAATCTGAATTCCGGTCTCCC
DNA 2: TGGTGGCTACGACGGGATT
B17: GCUGGGU (DNA:RNA)
RNA: B1 RNA with A25G, C27U, A31U
DNA 1: CAATCTGAATTCCGGTCTCCC
DNA 2: TGGTGGCTACGACGGGATT
B18: CAUGCAG (DNA:RNA)
RNA: B15 RNA with G27U, U28G, U31G
DNA 1: CAATCTGAATTCCGGTCTCCC
DNA 2: TGGTGGCTACGACGGGATT
B19: GUCCGUA (DNA:RNA)
RNA: B1 RNA with A25G, C26U, G28C, G30U
DNA 1: CAATCTGAATTCCGGTCTCCC
DNA 2: TGGTGGCTACGACGGGATT
B20: UAGAGCA (DNA:RNA)
RNA: B1 RNA with A25U, C26A, C27G, G28A, G30C
DNA 1: CAATCTGAATTCCGGTCTCCC
DNA 2: TGGTGGCTACGACGGGATT
B21: CAGCUUG (DNA:RNA)
RNA: B15 RNA with U28C, C29U, A30U, U31G
DNA 1: CAATCTGAATTCCGGTCTCCC
DNA 2: TGGTGGCTACGACGGGATT
B22: GAUUAGC (DNA:RNA)
RNA: B15 RNA with C25G, G27U, C29A, A30G, U31C
DNA 1: CAATCTGAATTCCGGTCTCCC
DNA 2: TGGTGGCTACGACGGGATT
B23: CCUAACG (DNA:RNA)
RNA: B1 RNA with A25C, C27U, G28A, G29A, G30C, A31G
DNA 1: CAATCTGAATTCCGGTCTCCC
DNA 2: TGGTGGCTACGACGGGATT
B24: UCGUAAU (DNA:RNA)
RNA: B15 RNA with C25U, A26C, C29A
DNA 1: CAATCTGAATTCCGGTCTCCC
DNA 2: TGGTGGCTACGACGGGATT
B25: GUGCUAC (DNA:RNA)
RNA: B15 RNA with C25G, A26U, U28C, C29U, U31C
DNA 1: CAATCTGAATTCCGGTCTCCC
DNA 2: TGGTGGCTACGACGGGATT
B26: GUGUUCA (DNA:RNA)
RNA: B15 RNA with C25G, A26U, C29U, A30C, U31A
DNA 1: CAATCTGAATTCCGGTCTCCC
DNA 2: TGGTGGCTACGACGGGATT
B27: CCUAACA (DNA:RNA)
RNA: B1 RNA with A25C, C27U, G28A, G29A, G30C
DNA 1: CAATCTGAATTCCGGTCTCCC
DNA 2: TGGTGGCTACGACGGGATT
B28: GAGAUGC (DNA:RNA)
RNA: B15 RNA with C25G, U28A, C29U, A30G, U31C
DNA 1: CAATCTGAATTCCGGTCTCCC
DNA 2: TGGTGGCTACGACGGGATT
B29: CGAGAUG (DNA:RNA)
RNA: B1 RNA with A25C, C26G, C27A, G29A, G30U, A31G
DNA 1: CAATCTGAATTCCGGTCTCCC
DNA 2: TGGTGGCTACGACGGGATT
B30: AUCACAU (DNA:RNA)
RNA: B15 RNA with C25A, A26U, G27C, U28A
DNA 1: CAATCTGAATTCCGGTCTCCC
DNA 2: TGGTGGCTACGACGGGATT
B31: AAGCGCC (DNA:RNA)
RNA: B1 RNA with C26A, C27G, G28C, G30C, A31C
DNA 1: CAATCTGAATTCCGGTCTCCC
DNA 2: TGGTGGCTACGACGGGATT

What follows are binders tested against T1, RBFOX1 RRM RbFoxmut (Fox-RRM*) (assay: EMSA; HiTS-Eq, 1 nM pool, 10 min; buffer printed only for the single-RNA assays: 10 mM Tris pH 7.5, 150 mM NaCl, 3.4 mM EDTA, 0.001% NP-40, 30 C). Settings: tags: His6 N-terminal (pET28a); label: 5' 32P.
In short: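 Purified RbFox RRM, wild type or mutant, was incubated for 10 min in 50 µL with 1 nM of a 5′-radiolabelled RNA pool carrying 7 randomized nucleotides, whose flanks were annealed to DNA oligonucleotides, over a series of increasing protein concentrations. Unbound RNA was resolved on 8% native PAGE, cut out, reverse-transcribed, barcoded by PCR and sequenced on an Illumina HiSeq 2500. Relative association constants were derived from changes in read counts for each RNA species versus the control reaction and normalised to the cognate motif.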

Binder	binding signal
B1	0.0968 KA relative to UGCAUGU
B2	0.122 KA relative to UGCAUGU
B3	0.0723 KA relative to UGCAUGU
B4	0.0945 KA relative to UGCAUGU
B5	0.0455 KA relative to UGCAUGU
B6	0.112 KA relative to UGCAUGU
B7	0.091 KA relative to UGCAUGU
B8	0.148 KA relative to UGCAUGU
B9	0.0663 KA relative to UGCAUGU
B10	0.0956 KA relative to UGCAUGU
B11	0.0955 KA relative to UGCAUGU
B12	0.135 KA relative to UGCAUGU
B13	0.135 KA relative to UGCAUGU
B14	0.0512 KA relative to UGCAUGU
B15	0.0772 KA relative to UGCAUGU
B16	0.101 KA relative to UGCAUGU

Binder	binding signal
B17	0.114 KA relative to UGCAUGU
B18	0.0953 KA relative to UGCAUGU
B19	0.12 KA relative to UGCAUGU
B20	0.0838 KA relative to UGCAUGU
B21	0.209 KA relative to UGCAUGU
B22	0.0959 KA relative to UGCAUGU
B23	0.0962 KA relative to UGCAUGU
B24	0.0961 KA relative to UGCAUGU
B25	0.105 KA relative to UGCAUGU
B26	0.14 KA relative to UGCAUGU
B27	0.107 KA relative to UGCAUGU
B28	0.115 KA relative to UGCAUGU
B29	0.158 KA relative to UGCAUGU
B30	0.0944 KA relative to UGCAUGU
B31	0.134 KA relative to UGCAUGU
